Data as given in PubChem BioAssay AID588579 (National Center for Advancing Translational Sciences (NCATS), 2011).
Several values for one entry are separate records, joined by “and”; a condition that tells them apart may be missing. Equal values may be shown once. In all, about 400,000 compounds went through this assay and about 2,200 (0.55%) were called active. This list was built around the results that the source calls inconclusive (neither active nor inactive); the mix of calls is not that of the screen. The call rests on the fitted dose curve; in most records, active means well fitted inhibition curve with a large enough effect; inconclusive means small, poorly fitted or top-dose-only effect, or another doubt; inactive means no such curve, though single readings can be large or run the other way. Potencies beside an inconclusive call are fits to weak or partial responses and may not hold up.

Each compound was assayed against DNA polymerase kappa (Homo sapiens) (UniProt Q9UBT6) (assay: qHTS for Inhibitors of Polymerase Kappa). Details: purified Pol kappa, fluorescent DNA synthesis assay, 10 min; series mostly up to 107 µM; activity, negative = inhibition: at the top concentration.
Sequence of UniProt Q9UBT6 (Q9UBT6 whole entry, looked up): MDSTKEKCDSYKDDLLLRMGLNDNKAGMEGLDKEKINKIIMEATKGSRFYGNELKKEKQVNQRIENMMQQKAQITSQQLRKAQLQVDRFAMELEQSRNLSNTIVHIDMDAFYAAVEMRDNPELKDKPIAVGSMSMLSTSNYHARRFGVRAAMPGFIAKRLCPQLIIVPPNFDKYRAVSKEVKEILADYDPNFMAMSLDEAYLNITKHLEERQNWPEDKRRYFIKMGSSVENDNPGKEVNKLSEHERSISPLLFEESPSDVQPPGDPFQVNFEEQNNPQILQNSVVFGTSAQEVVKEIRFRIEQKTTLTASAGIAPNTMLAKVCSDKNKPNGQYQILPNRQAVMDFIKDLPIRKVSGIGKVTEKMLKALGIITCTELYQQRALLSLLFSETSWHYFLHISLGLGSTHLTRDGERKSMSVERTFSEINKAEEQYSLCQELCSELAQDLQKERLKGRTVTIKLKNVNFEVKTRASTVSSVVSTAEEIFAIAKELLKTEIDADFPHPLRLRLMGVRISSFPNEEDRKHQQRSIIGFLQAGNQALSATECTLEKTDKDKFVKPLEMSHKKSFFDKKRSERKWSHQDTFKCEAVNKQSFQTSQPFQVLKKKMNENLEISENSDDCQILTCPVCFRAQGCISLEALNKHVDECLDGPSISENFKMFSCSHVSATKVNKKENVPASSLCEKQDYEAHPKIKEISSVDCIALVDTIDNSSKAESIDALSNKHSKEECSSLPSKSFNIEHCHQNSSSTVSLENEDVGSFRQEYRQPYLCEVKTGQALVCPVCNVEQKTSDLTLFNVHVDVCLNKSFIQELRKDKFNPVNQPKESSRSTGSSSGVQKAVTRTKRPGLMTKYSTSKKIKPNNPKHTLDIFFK
Outline: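 Enzyme at 10 nM met test compounds for 15 min at room temperature. Substrate addition (50 nM final) began the reaction, which was monitored by fluorescence at 0 and 10 min.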
On the % scale 0 is the no-effect control and ±100 the full control effect; potency means the concentration at half of the fitted maximal effect; tags describe the fitted curve by direction and shape.

SMILES | Potency | activity, negative = inhibition
CC(C)(C)n1ncc2c(=O)n(Cc3ccc(C#N)cc3)cnc21 | inconclusive: 100 µM [inhibitor, single point] | –
O=C1CC(c2ccco2)CC(O)=C1C=Nc1cc(Cl)ccc1O (stereo not given) | inconclusive: 56.2 µM [inhibitor, partial curve, poor fit] | –
CC(C)(C)c1ccc(S(=O)(=O)c2cnc(SCC(=O)Nc3ccc(F)c(Cl)c3)[nH]c2=O)cc1 | inconclusive: 89.1 µM [inhibitor, single point] | –
O=C(CSc1ccc(-c2cccs2)nn1)Nc1cccc(F)c1 | – | inactive: -6.72%
CCN(Cc1cccc(S(=O)(=O)O)c1)c1ccc(C(=C2C=CC(=[N+](CC)Cc3cccc(S(=O)(=O)O)c3)C=C2)c2ccccc2S(=O)(=O)[O-])cc1 | active: 7.94 µM | –
Cc1nc2ccccc2c(=O)n1/N=C/c1ccccc1O | – | inactive: -1.39%
N#Cc1c(N2CCCCC2)nc(N)c2c(N)nc(SCC(=O)O)cc12 | active: 39.8 µM | –
O=S(=O)(Nc1ccccc1)c1cccc2nsnc12 | inconclusive: 100 µM [inhibitor, single point] | –
COc1ccc(C(CC(=O)N2CCOCC2)c2c(OC)cc(OC)c3ccc(=O)oc23)cc1 (stereo not given) | inconclusive: 100 µM [inhibitor, single point] | –
Cc1ccccc1-n1nc2c(c1NC(=O)C(C)C)CS(=O)(=O)C2 | – | inactive: 5.72%
O=C(c1cccc([N+](=O)[O-])c1)N1CCN(CCc2ccncc2)CC1 | – | inactive: -5.7%
CCCN1Cc2cccc(C(N)=O)c2C1=O | – | inactive: 0.848%
CSC1=NSC2=NC(=O)/C(=C/c3coc4ccccc4c3=O)C(=N)N12 | inconclusive: 44.7 µM [inhibitor, partial curve, poor fit] | –
CCc1nn2c(=O)cc(COc3ccc(NC(=O)c4ccco4)cc3)nc2s1 | – | inactive: -22%
NCCc1nnc(SCC(=O)Nc2cccc(Cl)c2)o1 | inconclusive: 89.1 µM [inhibitor, single point] | –
COc1cc(/C=C(\C#N)C(=O)c2ccc(O)c(O)c2)cc(I)c1O | active: 708 nM and active: 423 nM | –
Cc1ccccc1NC(=O)CSc1nnc(-c2cccc(Cl)c2)o1 | inconclusive: 89.1 µM [inhibitor, single point] | –
O=C(c1ccc(COc2ccc(F)cc2)o1)n1cccn1 | – | inactive: 2.98%
CC1(C)CC(=O)C=C(Nc2ccc(O)c(C(=O)O)c2)C1 | inconclusive: 89.1 µM [inhibitor, partial curve, poor fit] | –
O=C(Nc1ccc(NC(=S)NC(=O)c2cccs2)cc1)c1ccco1 | inconclusive: 56.2 µM [inhibitor, partial curve, poor fit] | –
O=C(CCc1nnc2ccc(N3CCC4(CC3)OCCO4)nn12)N1CCCCC1 | inconclusive: 89.1 µM [inhibitor, single point] | –
COc1ccc2c(c1)c(=O)c(C(=O)c1ccc(F)cc1)cn2CC(=O)Nc1ccc(F)cc1 | – | inactive: -10.9%
NC(=O)N/N=C/c1ccccc1OCc1cccc2ccccc12 | – | inactive: 0.873%

SMILES | Potency | activity, negative = inhibition
CC(C)(C)C1CCc2nc(NC(=O)COc3ccc(F)cc3)sc2C1 (stereo not given) | inconclusive: 100 µM [inhibitor, partial curve, poor fit] | –
CC(C)(C)c1ccc(OCCSc2nc(-c3cccs3)nc3cc(=O)[nH]n23)cc1 | inconclusive: 89.1 µM [inhibitor, single point] | –
NC(=S)N=Nc1c(O)cc(O)c2[nH]c(=O)ccc12 | inconclusive: 11.2 µM [inhibitor, full curve, poor fit] | –
CCOC(=O)COc1c(Br)cc(C2NC(=O)NC(C)=C2C(C)=O)cc1OC (stereo not given) | inconclusive: 89.1 µM [inhibitor, single point] | –
CN1/C(=C\C=C2/SC(=S)N(CC(=O)O)C2=O)C(C)(C)c2ccccc21 | inconclusive: 15.8 µM [inhibitor, full curve, poor fit] | –
COCCN=c1scc(-c2cccs2)n1/N=C/c1ccc(O)c(O)c1O | inconclusive: 79.4 µM [inhibitor, partial curve, poor fit] | –
Cc1ccc2nc(NCCN)c3ncc(C)n3c2c1 | inconclusive: 21.2 µM [inhibitor, single point] | –
COc1cc2c(cc1OC)CN(Cc1nc3ccsc3c(=O)[nH]1)CC2 | inconclusive: 89.1 µM [inhibitor, single point] | –
CC1(C)OC(=O)C2(Cc3ccccc3N3CCCC32)C(=O)O1 (stereo not given) | inconclusive: 89.1 µM [inhibitor, single point] | –
O=C(COc1ccc(Br)cc1)NC1CC1 | inconclusive: 89.1 µM [inhibitor, single point] | –
CC(=O)Oc1cc(OC(C)=O)c2c(=O)cc(-c3ccc(OC(C)=O)c(OC(C)=O)c3)oc2c1 | active: 8.91 µM | –
CCOC(=O)Cc1csc(NC(=O)Cc2cccs2)n1 | inconclusive: 89.1 µM [inhibitor, single point] | –
O=C(COC(=O)c1ccc(S(=O)(=O)N2CCCC2)cc1)NCc1ccco1 | inconclusive: 89.1 µM [inhibitor, partial curve, poor fit] | –
Cc1cc(C)c(Nc2cc(S(=O)(=O)O)c(N)c3c2C(=O)c2ccccc2C3=O)c(C)c1 | inconclusive: 89.1 µM [inhibitor, single point] | –
Cc1cccc(Oc2nc3c(c(=O)n(C)c(=O)n3C)n2C)c1C | – | inactive: 9.43%
Cc1nnc(SCC(=O)Nc2sccc2C#N)n1Cc1ccccc1 | inconclusive: 89.1 µM [inhibitor, single point] | –
CCN(CC)N=Nc1cccc(NC(C)=O)c1 | inconclusive: 100 µM [inhibitor, single point] | –
Cc1cc(C)cc(OCC(=O)NCC2(N3CCOCC3)CCCCC2)c1 | – | inactive: -1.4%
O=C(O)c1ccc(-n2[nH]c3c(c2=O)CCCC3)cc1 | inconclusive: 89.1 µM [inhibitor, single point] | –
CC(c1ccc(F)cc1)n1c(-c2ccc3ccccc3n2)n[nH]c1=S (stereo not given) | – | inactive: -7.82%
Cc1ccc(S(=O)(=O)N2CCN(C(=O)COC(=O)c3ccc(O)cc3)CC2)c(C)c1 | – | inactive: -10.5%
Cc1c2ccccc2cc[n+]1C | – | inactive: -1.92%
